# From the supplement of paper PMC8728848
# The other results are listed elsewhere or left out.
# Key:
# Test in all cases: glycan array binding signal (z-score within array); higher = stronger binding
# Settings in all cases: glycan notation: IUPAC condensed, linker removed
# [1] = target: Glc(b1-6)Glc
# Summary of the method: (§1)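 Arrays were curated from the Consortium for Functional Glycomics database, 3228 in total, and kept only where the protein sequence was available. Binding is expressed as a within-array Z-score. This score was averaged across arrays of the same protein sequence at different concentrations or buffers and across linkers, and negative values can be read as non-binding.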
# [2] = target: GlcA(b1-3)Gal
# Summary of the method: as §1
# [3] = target: GlcA(b1-3)GlcNAc
# Summary of the method: as §1
# [4] = target: GlcA(b1-6)Gal
# Summary of the method: as §1
# [5] = target: GlcA3S(b1-3)Gal(b1-4)GlcNAc(b1-2)Man
# Summary of the method: as §1
# [6] = target: GlcA3S(b1-3)Gal(b1-4)GlcNAc(b1-3)Gal(b1-4)Glc
# Summary of the method: as §1
# [7] = target: GlcNAc(a1-3)Gal(b1-4)GlcNAc
# Summary of the method: as §1
# [8] = target: GlcNAc(a1-4)Gal(b1-3)GlcNAc
# Summary of the method: as §1
# [9] = target: GlcNAc(a1-4)Gal(b1-4)GalNAc
# Summary of the method: as §1
# [10] = target: GlcNAc(a1-4)Gal(b1-4)GlcNAc
# Summary of the method: as §1
# [11] = target: GlcNAc(a1-4)Gal(b1-4)GlcNAc(b1-3)Gal(b1-4)Glc
# Summary of the method: as §1
# [12] = target: GlcNAc(a1-4)Gal(b1-4)GlcNAc(b1-3)Gal(b1-4)GlcNAc
# Summary of the method: as §1
# [13] = target: GlcNAc(a1-4)Gal(b1-4)GlcNAc(b1-3)Gal(b1-4)GlcNAc(b1-3)Gal(b1-4)GlcNAc
# Summary of the method: as §1
# [14] = target: GlcNAc(a1-4)Gal(b1-4)GlcNAc(b1-3)Gal(b1-4)[Fuc(a1-3)]GlcNAc(b1-3)Gal(b1-4)[Fuc(a1-3)]GlcNAc
# Summary of the method: as §1
# [15] = target: GlcNAc(a1-6)Gal(b1-4)GlcNAc
# Summary of the method: as §1
# [16] = target: GlcNAc(b1-2)Gal(b1-3)GalNAc
# Summary of the method: as §1
# [17] = target: GlcNAc(b1-2)Man(a1-3)[GlcNAc(b1-2)Man(a1-6)]Man(b1-4)GlcNAc(b1-4)GlcNAc
# Summary of the method: as §1
# [18] = target: GlcNAc(b1-2)Man(a1-3)[GlcNAc(b1-2)Man(a1-6)]Man(b1-4)GlcNAc(b1-4)[Fuc(a1-6)]GlcNAc
# Summary of the method: as §1
# [19] = target: GlcNAc(b1-2)Man(a1-3)[GlcNAc(b1-4)][GlcNAc(b1-2)Man(a1-6)]Man(b1-4)GlcNAc(b1-4)GlcNAc
# Summary of the method: as §1
# [20] = target: GlcNAc(b1-2)Man(a1-3)[GlcNAc(b1-4)][GlcNAc(b1-2)Man(a1-6)]Man(b1-4)GlcNAc(b1-4)[Fuc(a1-6)]GlcNAc
# Summary of the method: as §1
# [21] = target: GlcNAc(b1-2)[GlcNAc(b1-4)]Man(a1-3)[GlcNAc(b1-2)Man(a1-6)]Man(b1-4)GlcNAc(b1-4)GlcNAc
# Summary of the method: as §1
# [22] = target: GlcNAc(b1-2)[GlcNAc(b1-4)]Man(a1-3)[GlcNAc(b1-4)][GlcNAc(b1-2)Man(a1-6)]Man(b1-4)GlcNAc(b1-4)GlcNAc
# Summary of the method: as §1
# [23] = target: GlcNAc(b1-2)[GlcNAc(b1-4)]Man(a1-3)[GlcNAc(b1-4)][GlcNAc(b1-2)[GlcNAc(b1-6)]Man(a1-6)]Man(b1-4)GlcNAc(b1-4)GlcNAc
# Summary of the method: as §1
# [24] = target: GlcNAc(b1-2)[GlcNAc(b1-4)]Man(a1-3)[GlcNAc(b1-4)][GlcNAc(b1-2)[GlcNAc(b1-6)]Man(a1-6)]Man(b1-4)GlcNAc(b1-4)[Fuc(a1-6)]GlcNAc
# Summary of the method: as §1
# [25] = target: GlcNAc(b1-2)[GlcNAc(b1-6)]Man(a1-6)[GlcNAc(b1-2)Man(a1-3)]Man(b1-4)GlcNAc(b1-4)GlcNAc
# Summary of the method: as §1
# [26] = target: GlcNAc(b1-2)[GlcNAc(b1-6)]Man(a1-6)[GlcNAc(b1-2)Man(a1-3)]Man(b1-4)GlcNAc(b1-4)[Fuc(a1-6)]GlcNAc
# Summary of the method: as §1
# [27] = target: GlcNAc(b1-2)[GlcNAc(b1-6)]Man(a1-6)[GlcNAc(b1-4)][GlcNAc(b1-2)Man(a1-3)]Man(b1-4)GlcNAc(b1-4)GlcNAc
# Summary of the method: as §1
# [28] = target: GlcNAc(b1-3)Fuc
# Summary of the method: as §1
# [29] = target: GlcNAc(b1-3)Gal
# Summary of the method: as §1
# [30] = target: GlcNAc(b1-3)Gal(b1-3)GalNAc
# Summary of the method: as §1
# [31] = target: GlcNAc(b1-3)Gal(b1-4)Glc
# Summary of the method: as §1
# [32] = target: GlcNAc(b1-3)Gal(b1-4)GlcNAc
# Summary of the method: as §1
# [33] = target: GlcNAc(b1-3)Gal(b1-4)GlcNAc(b1-2)Man(a1-3)[GlcNAc(b1-3)Gal(b1-4)GlcNAc(b1-2)Man(a1-6)]Man(b1-4)GlcNAc(b1-4)GlcNAc
# Summary of the method: as §1
# [34] = target: GlcNAc(b1-3)Gal(b1-4)GlcNAc(b1-2)Man(a1-3)[GlcNAc(b1-3)Gal(b1-4)GlcNAc(b1-2)Man(a1-6)]Man(b1-4)GlcNAc(b1-4)[Fuc(a1-6)]GlcNAc
# Summary of the method: as §1
# [35] = target: GlcNAc(b1-3)Gal(b1-4)GlcNAc(b1-2)[GlcNAc(b1-3)Gal(b1-4)GlcNAc(b1-6)]Man(a1-6)[GlcNAc(b1-3)Gal(b1-4)GlcNAc(b1-2)Man(a1-3)]Man(b1-4)GlcNAc(b1-4)GlcNAc
# Summary of the method: as §1
# [36] = target: GlcNAc(b1-3)Gal(b1-4)GlcNAc(b1-3)Gal(b1-4)GlcNAc
# Summary of the method: as §1
# [37] = target: GlcNAc(b1-3)Gal(b1-4)GlcNAc(b1-3)Gal(b1-4)GlcNAc(b1-2)Man(a1-3)[GlcNAc(b1-3)Gal(b1-4)GlcNAc(b1-3)Gal(b1-4)GlcNAc(b1-2)Man(a1-6)]Man(b1-4)GlcNAc(b1-4)GlcNAc
# Summary of the method: as §1
# [38] = target: GlcNAc(b1-3)Gal(b1-4)GlcNAc(b1-3)Gal(b1-4)GlcNAc(b1-2)Man(a1-3)[GlcNAc(b1-3)Gal(b1-4)GlcNAc(b1-3)Gal(b1-4)GlcNAc(b1-2)Man(a1-6)]Man(b1-4)GlcNAc(b1-4)[Fuc(a1-6)]GlcNAc
# Summary of the method: as §1
# [39] = target: GlcNAc(b1-3)Gal(b1-4)GlcNAc(b1-3)Gal(b1-4)GlcNAc(b1-2)[GlcNAc(b1-3)Gal(b1-4)GlcNAc(b1-3)Gal(b1-4)GlcNAc(b1-6)]Man(a1-6)[GlcNAc(b1-3)Gal(b1-4)GlcNAc(b1-3)Gal(b1-4)GlcNAc(b1-2)Man(a1-3)]Man(b1-4)GlcNAc(b1-4)[Fuc(a1-6)]GlcNAc
# Summary of the method: as §1
# [40] = target: GlcNAc(b1-3)Gal(b1-4)GlcNAc(b1-3)Gal(b1-4)GlcNAc(b1-3)Gal(b1-4)GlcNAc(b1-2)Man(a1-3)[GlcNAc(b1-3)Gal(b1-4)GlcNAc(b1-3)Gal(b1-4)GlcNAc(b1-3)Gal(b1-4)GlcNAc(b1-2)Man(a1-6)]Man(b1-4)GlcNAc(b1-4)GlcNAc
# Summary of the method: as §1
# [41] = target: GlcNAc(b1-3)Gal(b1-4)GlcNAc(b1-3)Gal(b1-4)GlcNAc(b1-3)Gal(b1-4)GlcNAc(b1-2)Man(a1-3)[GlcNAc(b1-3)Gal(b1-4)GlcNAc(b1-3)Gal(b1-4)GlcNAc(b1-3)Gal(b1-4)GlcNAc(b1-2)Man(a1-6)]Man(b1-4)GlcNAc(b1-4)[Fuc(a1-6)]GlcNAc
# Summary of the method: as §1
# [42] = target: GlcNAc(b1-3)Gal(b1-4)GlcNAc(b1-3)Gal(b1-4)GlcNAc(b1-3)Gal(b1-4)GlcNAc(b1-2)[GlcNAc(b1-3)Gal(b1-4)GlcNAc(b1-3)Gal(b1-4)GlcNAc(b1-3)Gal(b1-4)GlcNAc(b1-6)]Man(a1-6)[GlcNAc(b1-3)Gal(b1-4)GlcNAc(b1-3)Gal(b1-4)GlcNAc(b1-3)Gal(b1-4)GlcNAc(b1-2)Man(a1-3)]Man(b1-4)GlcNAc(b1-4)[Fuc(a1-6)]GlcNAc
# Summary of the method: as §1
# [43] = target: GlcNAc(b1-3)Gal(b1-4)GlcNAc(b1-3)Gal(b1-4)GlcNAc(b1-3)Gal(b1-4)GlcNAc(b1-3)Gal(b1-4)GlcNAc(b1-2)Man(a1-3)[GlcNAc(b1-3)Gal(b1-4)GlcNAc(b1-3)Gal(b1-4)GlcNAc(b1-3)Gal(b1-4)GlcNAc(b1-3)Gal(b1-4)GlcNAc(b1-2)Man(a1-6)]Man(b1-4)GlcNAc(b1-4)GlcNAc
# Summary of the method: as §1
# [44] = target: GlcNAc(b1-3)Gal(b1-4)GlcNAc(b1-3)Gal(b1-4)GlcNAc(b1-3)Gal(b1-4)GlcNAc(b1-3)Gal(b1-4)GlcNAc(b1-2)Man(a1-3)[GlcNAc(b1-3)Gal(b1-4)GlcNAc(b1-3)Gal(b1-4)GlcNAc(b1-3)Gal(b1-4)GlcNAc(b1-3)Gal(b1-4)GlcNAc(b1-2)Man(a1-6)]Man(b1-4)GlcNAc(b1-4)[Fuc(a1-6)]GlcNAc
# Summary of the method: as §1
# [45] = target: GlcNAc(b1-3)Gal(b1-4)GlcNAc(b1-3)Gal(b1-4)GlcNAc(b1-3)Gal(b1-4)GlcNAc(b1-3)Gal(b1-4)GlcNAc(b1-2)[GlcNAc(b1-3)Gal(b1-4)GlcNAc(b1-3)Gal(b1-4)GlcNAc(b1-3)Gal(b1-4)GlcNAc(b1-3)Gal(b1-4)GlcNAc(b1-6)]Man(a1-6)[GlcNAc(b1-3)Gal(b1-4)GlcNAc(b1-3)Gal(b1-4)GlcNAc(b1-3)Gal(b1-4)GlcNAc(b1-3)Gal(b1-4)GlcNAc(b1-2)Man(a1-3)]Man(b1-4)GlcNAc(b1-4)[Fuc(a1-6)]GlcNAc
# Summary of the method: as §1
binder,measurement,setting,value
PfulAvr4 (Pseudocercospora fuligena) (protein) HHHHHHDYKDDDDKTYVQDKTPAFVCPAADIKTTKCLGPKDCLYPSPKTCNGYIQCSPADDSYLTGIIHEMPCPSGLLWNDNKKWCDWPENTTCGLVKSAGATEVDATKQGPTPGKYHG,glycan array binding signal (z-score),[1],-0.087
same,glycan array binding signal (z-score),[2],-0.112
same,glycan array binding signal (z-score),[3],-0.03
same,glycan array binding signal (z-score),[4],-0.136
same,glycan array binding signal (z-score),[5],-0.138
same,glycan array binding signal (z-score),[6],-0.152
same,glycan array binding signal (z-score),[7],-0.093
same,glycan array binding signal (z-score),[8],-0.049
same,glycan array binding signal (z-score),[9],-0.143
same,glycan array binding signal (z-score),[10],-0.166
same,glycan array binding signal (z-score),[11],-0.142
same,glycan array binding signal (z-score),[12],-0.044
same,glycan array binding signal (z-score),[13],-0.059
same,glycan array binding signal (z-score),[14],-0.155
same,glycan array binding signal (z-score),[15],-0.132
same,glycan array binding signal (z-score),[16],-0.052
same,glycan array binding signal (z-score),[17],-0.111
same,glycan array binding signal (z-score),[18],-0.031
same,glycan array binding signal (z-score),[19],-0.154
same,glycan array binding signal (z-score),[20],-0.17
same,glycan array binding signal (z-score),[21],-0.053
same,glycan array binding signal (z-score),[22],-0.016
same,glycan array binding signal (z-score),[23],-0.126
same,glycan array binding signal (z-score),[24],-0.149
same,glycan array binding signal (z-score),[25],-0.029
same,glycan array binding signal (z-score),[26],-0.087
same,glycan array binding signal (z-score),[27],-0.158
same,glycan array binding signal (z-score),[28],-0.145
same,glycan array binding signal (z-score),[29],-0.069
same,glycan array binding signal (z-score),[30],-0.114
same,glycan array binding signal (z-score),[31],-0.11
same,glycan array binding signal (z-score),[32],-0.078
same,glycan array binding signal (z-score),[33],-0.09
same,glycan array binding signal (z-score),[34],-0.055
same,glycan array binding signal (z-score),[35],-0.112
same,glycan array binding signal (z-score),[36],-0.193
same,glycan array binding signal (z-score),[37],0.345
same,glycan array binding signal (z-score),[38],-0.029
same,glycan array binding signal (z-score),[39],-0.049
same,glycan array binding signal (z-score),[40],-0.095
same,glycan array binding signal (z-score),[41],-0.027
same,glycan array binding signal (z-score),[42],-0.07
same,glycan array binding signal (z-score),[43],-0.082
same,glycan array binding signal (z-score),[44],-0.05
same,glycan array binding signal (z-score),[45],-0.032
